B1: eAPP[…] (N-terminal His-Patch thioredoxin fusion with the complete ectodomain of APP695, […]) (receptor)
chain: EVPTDGNAGLLAEPQIAMFCGRLNMHMNV[here about 40 residues without letters]ANQPVTIQNWCKRGRKQCKTHPHFVIPYRCLVGEFVSDALLVPDKCKFLHQERMDVCETHLHWHTVAKETCSEKSTNLHDYGMLLPCGIDKFRGVEFVCCPLAEESDNVDSADAEEDDSDVWWGGADTDYADGSEDKVVEVAEEEEVAEVEEEEADDDEDDEDGDEVEEEAEEPYEEATERTTSIATTTTTTTESVEEVVRVPTTAASTPDAVDKYLETPGDENEHAHFQKAKERLEAKHRERMSQVMREWEEAERQAKNLPKADKKAVIQHFQEKVESLEQEAANERQQLVETHMARVEAMLNDRRRLALENYITALQAVPPRPRHVFNMLKKYVRAEQKDRQHTLKHFEHVRMVDPKKAAQIRSQVMTHLRVIYERMNQSLSLLYNVPAVAEEIQDEVDELLQKEQNYSDDVLANMISEPRISYGNDALMPSLTETKTTVELLPVNGEFSLDDLQPWHSFGADSVPANTENEVEPVDARPAADRGLTTRPGSGLTNIKTEEISEVKMDAEFRHDSGYEVHHQKLVFFAEDVGSNK
notes: Expressed in E. coli; Parallel dimer in solution by SAXS, in equilibrium with the monomer; also called full-length eAPP; eAPP[…]; not shown: N-terminal His-Patch thioredoxin fusion partner and linker (pET-102/D-TOPO, Invitrogen)
B2: recombinant βAPPs (receptor)
chain: not shown
notes: Coated at 2.5 µg/ml in the ELISA

Legend:
[1] = target: T1, high molecular weight (HMW) Aβ1-40 (UniProt P05067 part only); experiment: size-exclusion chromatography and BS3 cross-linking with western blots
T1 construct: domain: Aβ1-40; oligomeric, about 60 kDa after cross-linking; also called partially aggregated Aβ1-40; Aβ1-40 oligomers

[2] = target: the molecule itself; experiment: SAXS, molecular weight against reference proteins, DAMMIN and BUNCH (homodimer)
[3] = target: T2, low molecular weight (LMW) Aβ1-40 (UniProt P05067 part only); experiment: Aβ detected in the SEC-purified complex (protein:Aβ 1:20) by SDS-PAGE and Sypro Ruby staining
T2 construct: domain: Aβ1-40; primarily monomeric by SEC; also called Aβ1-40 prepared as a monomer; low molecular weight Aβ1-40

[4] = target: human Netrin-1 (recombinant) (human, UniProt O95631 25-604, limits assumed); experiment: ELISA, 2.5 µg/ml βAPPs coated, netrin-1 titrated; simulated Scatchard plot

Row | Binder | binding result [1] | binding result [2] | binding result [3] | Kd [4]
1 | B1 | binds | binds | binds | –
2 | B2 | – | – | – | ~6 nM

— patent publication US20100099609A1 (BUCK INSTITUTE FOR AGE RESEARCH, published 2010)
